± gives the standard deviation of the averaged measurements. This is one part of the list.
What follows are sequences tested on PfAP2-I AP2 domain 3 (GST-tagged) (assay: gcPBM binding intensity (ln(normalized median fluorescence intensity)); higher = stronger DNA binding).
In short: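 Binding intensity is defined as the maximum Masliner-normalised natural-log median intensity across replicate spots for either probe orientation. It was measured on an Agilent 4 × 180k array of primer-extended double-stranded 36-bp intergenic genomic probes and negative controls, to which GST-tagged P. falciparum DNA-binding domains made in E. coli were applied for 1 h in 1× PBS with 1% milk, 0.2 mg/ml BSA, 0.5% salmon testes DNA and 0.03% Triton X-100. Detection was by Alexa488 anti-GST antibody and scanning at 488 nm.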

Sequence | gcPBM binding intensity (ln)
TATATAAAATATTAATGTACATATAAATATATATAT [XGTACX_site6656] | 8.885 ± 0.049
ATTTATGAAAGAAATAGTACACACATAAACATTTGT [XGTACX_site5862] | 7.97 ± 0.65
GTAATTAAAATATATACACACAAAGGCTATTAAATA [CACACA_site1011] | 7.68 ± 0.52
TTTAATACGAATGAGGCACACACCTAGTATACATGC [CACACA_site621] | 7.96 ± 0.66
TTTAATTTTTTTAAAACACACAAATATATATATATA [CACACA_site3898] | 9.44 ± 0.39
CAAAATAATATATATACACACACACCGATATATATA [CACACA_site8082] | 8.06 ± 0.76
GTTAGCATATTAAGTTGTACACAATTATTCTTCAAT [XGTACX_site8324] | 8.08 ± 0.42
TGGTATTTTGATGATAAAAGGAAATTTTTTTTATAC [XGTACX_negctrl_site111] | 7.83 ± 0.28
AACAAAGAAAATACATGTACAAAAAATATTAACGAA [XGTACX_site287] | 8.21 ± 0.69
AATATAATATAATGCACACATAAACAAAAAAAAAAA [CACACA_site783] | 11.2 ± 1
ATTAATAATCGAAAGGTGCACTTTGATTTGATAACA | 11.2 ± 0.3
TTATTATTTTATCGTAGTACACCTAAATTATAAAAC [XGTACX_site5251] | 8.425 ± 0.078
TAATTAAAATTATTTATAAATTAGTATATTTCTATA [CACACA_negctrl_site663] | 7.21 ± 0.37
TTACAAAAATTTTGTTCACACATAAAAATATGTTAC [CACACA_site5740] | 7.5 ± 0.6
ATATATTTTTCAAAATGTACAAATAATTAAATACCA [XGTACX_site875] | 7.72 ± 0.38
TAATAAATTATTTTTTATTATTTTAATAACACTTCA [CACACA_negctrl_site3] | 7.24 ± 0.39
ATATAAAAAAATTGCACACATAAATATATACATATA [CACACA_site1218] | 8.47 ± 0.042
TTTATGTACAGACATATACACACCTCTATAATATAT [CACACA_site730] | 8.1 ± 0.11
GATACATAGAAACACACACACATACATATATACATA [CACACA_site3438] | 8.01 ± 0.4

Sequence | gcPBM binding intensity (ln)
TATTGTAATATTATATATATCTATTATGTATATAAA [CACACA_negctrl_site454] | 7.38 ± 0.26
AATTATATATTAAAAAGTACAAGTTAATATAATATA [XGTACX_site2737] | 7.71 ± 0.34
ATGAATATATATATTTGTACATATGTATATATATAT [XGTACX_site7527] | 9.05 ± 0.5
TATATATTTTTTTCATGTACTTATTATATATATATA [XGTACX_site5321] | 9.12 ± 0.2
GGAAATATAAAATCATGTACATATGTATATATAATT [XGTACX_site5491] | 7.81 ± 0.45
AGTATAGATGTATACACACACCAAACGTTAAAAAAA [CACACA_site7443] | 7.89 ± 0.71
CCGATATAATGGAAAACACACAAAAGATATATATAT [CACACA_site2683] | 9.01 ± 0.15
ACATACATTTTTAAATGTACATATATATATATATAT [XGTACX_site6751] | 9.29 ± 0.35
ATATGGCACATATGTACACACGTATAGATAATATTA [CACACA_site5162] | 8.58 ± 0.014
ATTTATTTATTTATATGTACTTAAATGAAAGGAATA [XGTACX_site6024] | 7.92 ± 0.092
TTTCAAAATTTTTATTTTAAATAAACATTTATAAAA [CACACA_negctrl_site1588] | 7.47 ± 0.27
AATATTATATGGACGTGTCCACATAAACCTATATAT [XGTACX_site2053] | 7.75 ± 0.52
TTAGTAAATACATTTGCACACATTATTTTTTAACAT [CACACA_site5448] | 9.36 ± 0.11
TATATATATATATATATATATATATATATAATATTA [XGTACX_negctrl_site558] | 9.26 ± 0.76
AATCATATTTAGATTACACACAGTTTAAATATTTTA [CACACA_site1263] | 7.54 ± 0.56
TGTAATGTTTACAACACACAAATTATAAATACAAAA [CACACA_site5047] | 7.67 ± 0.59
TATTTAAATGGATGCACACATGCATTAAATAAAATA [CACACA_site3433] | 9.04 ± 0.73
TACAAACAGACATATACACACAAAAAAAAAATAAAA [CACACA_site2562] | 7.75 ± 0.4
TCGATATATAGACACACACACTTTTAATAATTAAAT [CACACA_site7726] | 8.01 ± 0.34

Sequence | gcPBM binding intensity (ln)
TTATGCAGATAAAAGAGTACATATTCGTTACATACA [XGTACX_site2849] | 7.92 ± 0.42
ATATAAATATAGTGTGCACACACATAATATATATAT [CACACA_site8713] | 9.49 ± 0.11
TATATTTTAAAATTATGTACATATATAGATAAATGT [XGTACX_site1349] | 7.96 ± 0.52
AAAATAAATTGTGAAGGTACACAAATTATTATGTGG [XGTACX_site4196] | 7.64 ± 0.34
ATATATATATATAATACACACATCATAAAATATGTA [CACACA_site2518] | 9.35 ± 0.3
TATCATCATGTATGTACACACATACAGATATTATGT [CACACA_site4888] | 7.72 ± 0.27
AAATACAAAATTGTTACACACATATTAATTATGACA [CACACA_site476] | 7.6 ± 0.49
AAAAAGAAAAAATATATTCGTCTATTATAAACAATA [CACACA_negctrl_site648] | 7.22 ± 0.49
TAAATATTAACAATCGCACACATATTATTTTTCCAA [CACACA_site1626] | 7.82 ± 0.5
GAATATATATTCATATGTACACAATTTATGTATTAT [XGTACX_site4719] | 7.98 ± 0.33
AAGGTAAACAGACACACACACATACAAAAAAAAAAA [CACACA_site3768] | 8.04 ± 0.47
AACACATACAGATATGCACACATTTTATTCCATTAT [CACACA_site5565] | 8.93 ± 0.2
ATATATATATTATATGCACACTTATATTTCATTAGA [CACACA_site5439] | 9.845 ± 0.049
TATTTATAAATGAACACACACGCAATTTGAATCGAA [CACACA_site3371] | 8.04 ± 0.46
TTTTTATATTTCAACATATCACAATTTTATATATCT [CACACA_negctrl_site178] | 7.79 ± 0.47
GAATATAAACCTATTACACACATCTATATGTACATT [CACACA_site1914] | 7.96 ± 0.67
CTATATCATTTTCTAGCACACACATTGTTATTACCT [CACACA_site8204] | 8.39 ± 0.81
ATTTTTTTTATTATTACACACATATAACAAAAAAAT [CACACA_site6934] | 8.12 ± 0.4
